Data on twelve sequences can be found in the supplement of paper PMC12230231.

± gives the standard deviation of the averaged measurements. Restriction of a single-cycle SIVsab GFP reporter by TRIM5α v1-loop variants in CRFK cells. Human variants: read share among cells still uninfected after two challenges over input, higher = gained restriction. Rhesus variants: share among infected cells over input, higher = lost restriction. Reporter dose not given per row. No active / inactive call per row; the paper calls a change when both replicates lie above its controls (mean + 2 SD of stop or wild-type variants, or the top frameshift score). Residues outside the varied loop are taken from Swiss-Prot. The paper reads the human single-substitution scores as noise; they and the rhesus combinations repeat poorly (rank correlation 0.3 to 0.4), indel scores repeat only for the top variants, rhesus substitutions well (0.9).

For this data set, the system named is SIVsab (simian immunodeficiency virus of sabaeus monkeys), single-cycle GFP reporter, in CRFK cells. As to the kind of experiment: enrichment among uninfected cells over input (fold); higher = stronger restriction. The conditions noted are these: library: insertions and deletions. The procedure:
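Pools of CRFK cells expressing variants of the TRIM5α v1 loop were challenged with the single-cycle reporter, sorted by GFP and sequenced; mean of two replicates.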
For “MASGILVNVKEEVTCPICLELLTQPLSLDCGHSFCQACLTANHKKSMLDKGESSCPVCRISYQPENIRPNRHVANIVEKLREVKLSPEGQKVDHCARHGEKLLLFCQEDGKVICWLCERSQEHRGHHTFLTEEVAREYQVKLQAALEMLRQKQQEAEELEADIREEKASWKTQIQYDKTNVLADFEQLRDILDWEESNELQNLEKEEEDILKSLTNSETEMVQQTQSLRELISDLEHRLQGSVMELLQGVDGVIKRTENVTLKKPETFPKNQRRVFRAPDLKGMLEVFRELTDVRRYWVDVTVAPNNISCAVISEDKRQVSSPKPQIIYGATFVNFNYCTGILGSQSITSGKHYWEVDVSKKTAWILGVCAGFQPDAMCNIEKNENYQPKYGYWVIGLEEGVKCSAFQDSSFHTPSVPFIVPLSVIICPDRVGVFLDYEACTVSFFNITNHGFLIYKFSHCSFSQPVFPYLNPRKCGVPMTLCSPSS [human TRIM5α, 6-codon deletion at 332]”, the enrichment is 0.819 ± 0.055. “MASGILVNVKEEVTCPICLELLTQPLSLDCGHSFCQACLTANHKKSMLDKGESSCPVCRISYQPENIRPNRHVANIVEKLREVKLSPEGQKVDHCARHGEKLLLFCQEDGKVICWLCERSQEHRGHHTFLTEEVAREYQVKLQAALEMLRQKQQEAEELEADIREEKASWKTQIQYDKTNVLADFEQLRDILDWEESNELQNLEKEEEDILKSLTNSETEMVQQTQSLRELISDLEHRLQGSVMELLQGVDGVIKRTENVTLKKPETFPKNQRRVFRAPDLKGMLEVFRELTDVRRYWVDVTVAPNNISCAVISEDKRQVSSPKPQIIYGATRYQTFVNFNYCTGILGSQSITSGKHYWEVDVSKKTAWILGVCAGFQPDAMCNIEKNENYQPKYGYWVIGLEEGVKCSAFQDSSFHTPSVPFIVPLSVIICPDRVGVFLDYEACTVSFFNITNHGFLIYKFSHCSFSQPVFPYLNPRKCGVPMTLCSPSS [human TRIM5α, 2-codon deletion at 332]” yielded an enrichment of 0.856 ± 0.091. “MASGILVNVKEEVTCPICLELLTQPLSLDCGHSFCQACLTANHKKSMLDKGESSCPVCRISYQPENIRPNRHVANIVEKLREVKLSPEGQKVDHCARHGEKLLLFCQEDGKVICWLCERSQEHRGHHTFLTEEVAREYQVKLQAALEMLRQKQQEAEELEADIREEKASWKTQIQYDKTNVLADFEQLRDILDWEESNELQNLEKEEEDILKSLTNSETEMVQQTQSLRELISDLEHRLQGSVMELLQGVDGVIKRTENVTLKKPETFPKNQRRVFRAPDLKGMLEVFRELTDVRRYWVDVTVAPNNISCAVISEDKRQVSSPKPQIIYGAVNFNYCTGILGSQSITSGKHYWEVDVSKKTAWILGVCAGFQPDAMCNIEKNENYQPKYGYWVIGLEEGVKCSAFQDSSFHTPSVPFIVPLSVIICPDRVGVFLDYEACTVSFFNITNHGFLIYKFSHCSFSQPVFPYLNPRKCGVPMTLCSPSS [human TRIM5α, 8-codon deletion at 332]” gave an enrichment of 0.873 ± 0.31. As to “MASGILVNVKEEVTCPICLELLTQPLSLDCGHSFCQACLTANHKKSMLDKGESSCPVCRISYQPENIRPNRHVANIVEKLREVKLSPEGQKVDHCARHGEKLLLFCQEDGKVICWLCERSQEHRGHHTFLTEEVAREYQVKLQAALEMLRQKQQEAEELEADIREEKASWKTQIQYDKTNVLADFEQLRDILDWEESNELQNLEKEEEDILKSLTNSETEMVQQTQSLRELISDLEHRLQGSVMELLQGVDGVIKRTENVTLKKPETFPKNQRRVFRAPDLKGMLEVFRELTDVRRYWVDVTVAPNNISCAVISEDKRQVSSPKPQIIYGAYGARGTRYQTFVNFNYCTGILGSQSITSGKHYWEVDVSKKTAWILGVCAGFQPDAMCNIEKNENYQPKYGYWVIGLEEGVKCSAFQDSSFHTPSVPFIVPLSVIICPDRVGVFLDYEACTVSFFNITNHGFLIYKFSHCSFSQPVFPYLNPRKCGVPMTLCSPSS [human TRIM5α, 3-codon duplication at 329]”, the enrichment came to 0.458 ± 0.18. For “MASGILVNVKEEVTCPICLELLTQPLSLDCGHSFCQACLTANHKKSMLDKGESSCPVCRISYQPENIRPNRHVANIVEKLREVKLSPEGQKVDHCARHGEKLLLFCQEDGKVICWLCERSQEHRGHHTFLTEEVAREYQVKLQAALEMLRQKQQEAEELEADIREEKASWKTQIQYDKTNVLADFEQLRDILDWEESNELQNLEKEEEDILKSLTNSETEMVQQTQSLRELISDLEHRLQGSVMELLQGVDGVIKRTENVTLKKPETFPKNQRRVFRAPDLKGMLEVFRELTDVRRYWVDVTVAPNNISCAVISEDKRQVSSPKPQIIYGAYQTFVNFNYCTGILGSQSITSGKHYWEVDVSKKTAWILGVCAGFQPDAMCNIEKNENYQPKYGYWVIGLEEGVKCSAFQDSSFHTPSVPFIVPLSVIICPDRVGVFLDYEACTVSFFNITNHGFLIYKFSHCSFSQPVFPYLNPRKCGVPMTLCSPSS [human TRIM5α, 4-codon deletion at 332]” the value was 0.551 ± 0.046; for “MASGILVNVKEEVTCPICLELLTQPLSLDCGHSFCQACLTANHKKSMLDKGESSCPVCRISYQPENIRPNRHVANIVEKLREVKLSPEGQKVDHCARHGEKLLLFCQEDGKVICWLCERSQEHRGHHTFLTEEVAREYQVKLQAALEMLRQKQQEAEELEADIREEKASWKTQIQYDKTNVLADFEQLRDILDWEESNELQNLEKEEEDILKSLTNSETEMVQQTQSLRELISDLEHRLQGSVMELLQGVDGVIKRTENVTLKKPETFPKNQRRVFRAPDLKGMLEVFRELTDVRRYWVDVTVAPNNISCAVISEDKRQVSSPKPQIIYGFVNFNYCTGILGSQSITSGKHYWEVDVSKKTAWILGVCAGFQPDAMCNIEKNENYQPKYGYWVIGLEEGVKCSAFQDSSFHTPSVPFIVPLSVIICPDRVGVFLDYEACTVSFFNITNHGFLIYKFSHCSFSQPVFPYLNPRKCGVPMTLCSPSS [human TRIM5α, 8-codon deletion at 331]”, 0.822 ± 0.79; for “MASGILVNVKEEVTCPICLELLTQPLSLDCGHSFCQACLTANHKKSMLDKGESSCPVCRISYQPENIRPNRHVANIVEKLREVKLSPEGQKVDHCARHGEKLLLFCQEDGKVICWLCERSQEHRGHHTFLTEEVAREYQVKLQAALEMLRQKQQEAEELEADIREEKASWKTQIQYDKTNVLADFEQLRDILDWEESNELQNLEKEEEDILKSLTNSETEMVQQTQSLRELISDLEHRLQGSVMELLQGVDGVIKRTENVTLKKPETFPKNQRRVFRAPDLKGMLEVFRELTDVRRYWVDVTVAPNNISCAVISEDKRQVSSPKPQIIYGGARGTRYQTFVNFNYCTGILGSQSITSGKHYWEVDVSKKTAWILGVCAGFQPDAMCNIEKNENYQPKYGYWVIGLEEGVKCSAFQDSSFHTPSVPFIVPLSVIICPDRVGVFLDYEACTVSFFNITNHGFLIYKFSHCSFSQPVFPYLNPRKCGVPMTLCSPSS [human TRIM5α, 1-codon duplication at 330]”, 0.669 ± 0.48. On to “MASGILVNVKEEVTCPICLELLTQPLSLDCGHSFCQACLTANHKKSMLDKGESSCPVCRISYQPENIRPNRHVANIVEKLREVKLSPEGQKVDHCARHGEKLLLFCQEDGKVICWLCERSQEHRGHHTFLTEEVAREYQVKLQAALEMLRQKQQEAEELEADIREEKASWKTQIQYDKTNVLADFEQLRDILDWEESNELQNLEKEEEDILKSLTNSETEMVQQTQSLRELISDLEHRLQGSVMELLQGVDGVIKRTENVTLKKPETFPKNQRRVFRAPDLKGMLEVFRELTDVRRYWVDVTVAPNNISCAVISEDKRQVSSPKPQIIYGGTRYQTFVNFNYCTGILGSQSITSGKHYWEVDVSKKTAWILGVCAGFQPDAMCNIEKNENYQPKYGYWVIGLEEGVKCSAFQDSSFHTPSVPFIVPLSVIICPDRVGVFLDYEACTVSFFNITNHGFLIYKFSHCSFSQPVFPYLNPRKCGVPMTLCSPSS [human TRIM5α, 2-codon deletion at 331]”, for which the enrichment is 0.175 ± 0.17. Sequence “MASGILVNVKEEVTCPICLELLTQPLSLDCGHSFCQACLTANHKKSMLDKGESSCPVCRISYQPENIRPNRHVANIVEKLREVKLSPEGQKVDHCARHGEKLLLFCQEDGKVICWLCERSQEHRGHHTFLTEEVAREYQVKLQAALEMLRQKQQEAEELEADIREEKASWKTQIQYDKTNVLADFEQLRDILDWEESNELQNLEKEEEDILKSLTNSETEMVQQTQSLRELISDLEHRLQGSVMELLQGVDGVIKRTENVTLKKPETFPKNQRRVFRAPDLKGMLEVFRELTDVRRYWVDVTVAPNNISCAVISEDKRQVSSPKPQIIYGIIYGARGTRYQTFVNFNYCTGILGSQSITSGKHYWEVDVSKKTAWILGVCAGFQPDAMCNIEKNENYQPKYGYWVIGLEEGVKCSAFQDSSFHTPSVPFIVPLSVIICPDRVGVFLDYEACTVSFFNITNHGFLIYKFSHCSFSQPVFPYLNPRKCGVPMTLCSPSS [human TRIM5α, 4-codon duplication at 327]” yielded an enrichment of 0.671 ± 0.69. Turning to “MASGILVNVKEEVTCPICLELLTQPLSLDCGHSFCQACLTANHKKSMLDKGESSCPVCRISYQPENIRPNRHVANIVEKLREVKLSPEGQKVDHCARHGEKLLLFCQEDGKVICWLCERSQEHRGHHTFLTEEVAREYQVKLQAALEMLRQKQQEAEELEADIREEKASWKTQIQYDKTNVLADFEQLRDILDWEESNELQNLEKEEEDILKSLTNSETEMVQQTQSLRELISDLEHRLQGSVMELLQGVDGVIKRTENVTLKKPETFPKNQRRVFRAPDLKGMLEVFRELTDVRRYWVDVTVAPNNISCAVISEDKRQVSSPKPQIIYGIYGARGTRYQTFVNFNYCTGILGSQSITSGKHYWEVDVSKKTAWILGVCAGFQPDAMCNIEKNENYQPKYGYWVIGLEEGVKCSAFQDSSFHTPSVPFIVPLSVIICPDRVGVFLDYEACTVSFFNITNHGFLIYKFSHCSFSQPVFPYLNPRKCGVPMTLCSPSS [human TRIM5α, 3-codon duplication at 328]”, the enrichment is 0.914 ± 0.87. As for “MASGILVNVKEEVTCPICLELLTQPLSLDCGHSFCQACLTANHKKSMLDKGESSCPVCRISYQPENIRPNRHVANIVEKLREVKLSPEGQKVDHCARHGEKLLLFCQEDGKVICWLCERSQEHRGHHTFLTEEVAREYQVKLQAALEMLRQKQQEAEELEADIREEKASWKTQIQYDKTNVLADFEQLRDILDWEESNELQNLEKEEEDILKSLTNSETEMVQQTQSLRELISDLEHRLQGSVMELLQGVDGVIKRTENVTLKKPETFPKNQRRVFRAPDLKGMLEVFRELTDVRRYWVDVTVAPNNISCAVISEDKRQVSSPKPQIIYGKPQIIYGARGTRYQTFVNFNYCTGILGSQSITSGKHYWEVDVSKKTAWILGVCAGFQPDAMCNIEKNENYQPKYGYWVIGLEEGVKCSAFQDSSFHTPSVPFIVPLSVIICPDRVGVFLDYEACTVSFFNITNHGFLIYKFSHCSFSQPVFPYLNPRKCGVPMTLCSPSS [human TRIM5α, 7-codon duplication at 324]”, the enrichment came out at 0.0908 ± 0.0062. Take “MASGILVNVKEEVTCPICLELLTQPLSLDCGHSFCQACLTANHKKSMLDKGESSCPVCRISYQPENIRPNRHVANIVEKLREVKLSPEGQKVDHCARHGEKLLLFCQEDGKVICWLCERSQEHRGHHTFLTEEVAREYQVKLQAALEMLRQKQQEAEELEADIREEKASWKTQIQYDKTNVLADFEQLRDILDWEESNELQNLEKEEEDILKSLTNSETEMVQQTQSLRELISDLEHRLQGSVMELLQGVDGVIKRTENVTLKKPETFPKNQRRVFRAPDLKGMLEVFRELTDVRRYWVDVTVAPNNISCAVISEDKRQVSSPKPQIIYGPQIIYGARGTRYQTFVNFNYCTGILGSQSITSGKHYWEVDVSKKTAWILGVCAGFQPDAMCNIEKNENYQPKYGYWVIGLEEGVKCSAFQDSSFHTPSVPFIVPLSVIICPDRVGVFLDYEACTVSFFNITNHGFLIYKFSHCSFSQPVFPYLNPRKCGVPMTLCSPSS [human TRIM5α, 6-codon duplication at 325]”: the enrichment is 0.355 ± 0.098.
